The campaign covered roughly 44,000 compounds. About 340 (0.77%) were called active. Inconclusive results (about 5%) are left out. The call rests on the fitted dose curve; in most records, active means well fitted inhibition curve with a large enough effect; inconclusive means small, poorly fitted or top-dose-only effect; inactive means flat fitted curve, though single readings scatter. Some of the results follow.
Test: Acumen qHTS Assay for Inhibitors of the mTORC1 Signaling Pathway in MEF (Tsc2-/-, p53-/-) Cells: Sytravon;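 further: plate controls were DMSO for no effect and rapamycin for full effect; nearly all actives have a fitted effect of over 50% in size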
Settings: phospho-rpS6 immunofluorescence/PI, 24 h; series mostly up to 38.3 µM; activity change, negative = inhibition: at the top concentration
Excerpt: NIH Molecular Libraries Probe Production Centers Network [MLPCN] NIH Chemical Genomics Center [NCGC] MLPCN Grant: NS059428-01 Assay Submitter (PI): Blenis, John; Hoffman, Greg; Harvard University NCGC Assay Overview: The mammalian target of rapamycin (mTOR) is an intracellular serine/threonine kinase Aberrant regulation of mTOR signaling plays a causative role in a number of human diseases, including cancer, benign tumors such as lymphangioleiomyomatosis (LAM) and Tuberous Sclerosis Complex (TSC), and metabolic diseases such as diabetes and obesity. This project aims to identify inhibitors of ribosomal protein S6 (rpS6) phosphorylation. The phosphorylation of rpS6 is a key event downstream of mTOR activation. The assay uses a phospho-specific antibody of phospho-rpS6 to detect inhibitors of mTOR activation. Mutations in the Tsc1 and Tsc2 genes are the underlying genetic lesions responsible for TSC, causing constitutive activation of the mTORC1 pathway and leading to profound effects on cell metabolism. Aberrant metabolism in cancer has recently received significant attention as a target to develop therapeutic agents in the treatment of cancer.1 As Tsc2-/- cells have lost the ability to respond to energy and growth factor deprivation, these cells are unable to properly down regulate cellular biosynthetic processes in response to metabolic stress, and are thus extremely sensitive to glucose deprivation-induced death.2 A central goal of this project is to explore the unique cell survival and metabolic properties of cells with Tsc1 or Tsc2 by screening for compounds that selectively target the Tsc2-/- MEFs by screening both Tsc2-/- and WT MEF cell lines. We hope to better understand these aspects of TSC physiology in order to exploit them for therapeutic benefit.
NCGC Acumen Assay Protocol Summary: For quantitative high throughput analysis of mTORC1 signaling, we developed a cell-based assay for immuno-fluorescence based detection of rpS6 phosphorylation on the Acumen Explorer that will be used a platform for the primary small molecule screen. Mouse embryonic fibroblasts (MEFs) are cultured in 1536-well plates using DMEM + 10% FBS. Twenty-four hrs after plating, test compounds (solubilized in DMSO) are delivered and incubated with the cells for 24 hrs at 37 degree Celsius. Following the incubation, media with compound is aspirated and the cells are fixed in 4% paraformaldehyde (PFA) containing PBS + 0.2% TX-100. Next, PFA is aspirated, cells are washed two times with PBS plus 0.2% TX-100 and the cells are blocked for 1 hr at room temperature (blocking buffer: LiCOR Blocking Buffer plus 0.2% TX-100). […] Cells are washed two times with PBS plus 0.2% TX-100, and stained with 10 uM propidium iodide (PI) for 20-25 minutes for cell number measurement (1:500 dilution of Hoescht staining is also added for IN Cell imaging). The plates are scanned on the Acumen Explorer laser scanning instrument (TTP Labtech) using the 488nm laser for simultaneous excitation of the Alexa-488 and PI. […] The normalized phospho-S6 staining is calculated as the ratio of the integrated Alexa 488 intensity divided by the integrated PI intensity for the single concentration rapamycin control (7.5 nM) and DMSO columns. […] Inhibition of the pathway is defined based on the normalized phospho-S6 intensity in rapamycin treated cells. Active cells are defined as those with a normalized phospho-S6 staining above this threshold, and each treatment is reported as the % positive cells in the well, where thresholds are defined by selecting wells with the highest and lowest signal and differentiating between the % non-active and % active populations. In addition to the pathway specific phospho-S6 endpoint, the number of PI stained cells from the Acumen is recorded as a measure of cell viability. The primary screen was performed with a MEF cell line in a defined genetic background, Tsc2-/-, p53-/- cell line stably transfected with an empty vector control (Tsc2-/- MEF).

Structure (SMILES)	activity change, negative = inhibition
CC1CCN(c2cc3c(cc2F)c(=O)c(S(=O)(=O)c2ccc(Cl)cc2)cn3C)CC1	inactive: -4.28%
CCOC(=O)c1c(NC(=O)c2cc(-c3ccc(Cl)cc3)on2)sc2c1CCCC2	inactive: -10.8%
CNS(=O)(=O)c1cc(-c2nn3c(C)nnc3c3ccccc23)ccc1C	inactive: 5.04%
CC(C)CCNC(=O)c1cn(C)c2ccc(S(=O)(=O)N3CCCC3)cc2c1=O	inactive: -10.8%
CCOc1ccc(-c2cc3nc(C4CCN(C(=O)OC(C)(C)C)CC4)c(C(=O)Nc4ccc(C)c(F)c4)cn3n2)cc1	inactive: -4.83%
CCn1cc(C(=O)N2CCN(c3cc(Cl)ccc3C)CC2)c(=O)c2cc(S(=O)(=O)N3CCOCC3)ccc21	inactive: -5.39%
CCC(=O)N1CCc2cc(Br)cc(S(=O)(=O)N3CCC(C(=O)N(CC)CC)CC3)c21	inactive: 2.88%
COc1ccc(OC)c(CNc2ncnc3onc(C)c23)c1	inactive: -8.01%
CCc1cccc(C)c1NC(=O)c1cc(S(=O)(=O)N2CCN(c3ccccc3)CC2)ccc1F	inactive: 9.39%
COc1ccc2c(c1)CC(C(=O)Nc1cc(OC)c(OC)c(OC)c1)CO2 (stereo not drawn)	inactive: -20.8%
Cc1cccc(CCNC(=O)CCc2c(C)nc3c(c(C)nn3-c3ccccc3)c2C)c1	inactive: -9.05%
CN1C(=O)c2ccccc2Sc2ccc(NC(=O)N3CCN(c4cccc(Cl)c4)CC3)cc21	inactive: -7.47%
CN(C)c1ccc(C(=O)NCc2ccc3c(c2)CCN3C(=O)c2ccc(Cl)cc2)cc1	inactive: -3.18%
Clc1ccc(CNc2ncnc3onc(-c4ccc(Cl)cc4)c23)cc1	inactive: -17.2%
COc1ccc(C(=O)NCc2ccc3c(c2)CCN3C(=O)c2ccc(Cl)cc2)c(OC)c1	inactive: -3.36%
COc1cc(OC)cc(C(=O)Nc2cccc(-c3cn4ccsc4n3)c2)c1	inactive: -0.476%
CCOc1ccc(NC(=O)CSc2cn(CC(=O)N3CCOCC3)c3ccccc23)cc1	inactive: -9.25%
CC(C)OCCCn1c(SCc2ccccc2Cl)nc2c(sc3ccccc32)c1=O	inactive: 1.67%
CCC(Cc1ccccc1)NC(=O)c1cccc(Nc2nc3ccccc3nc2-n2nc(C)cc2C)c1 (stereo not drawn)	inactive: 3.15%
CCC1CN(C(=O)N2CCC(C(=O)NCCC3=CCCCC3)CC2)c2ccccc2O1 (stereo not drawn)	inactive: 5.23%
CCC1CCCCN1C(=O)Cn1c(=O)n(-c2ccc(Cl)c(Cl)c2)c(=O)c2c(C)c(C(=O)N(C)C)sc21 (stereo not drawn)	inactive: -1.18%
COc1ccc(CCNC(=O)c2cc(=O)[nH]c3ccc(S(=O)(=O)N4CCCCC4)cc23)cc1OC	inactive: 4.24%
CCOc1ccc(NC(=O)C2CCC(CNS(=O)(=O)c3ccc4c(c3)CCCC(=O)N4)CC2)cc1 (stereo not drawn)	inactive: 0.383%
CC(=O)Nc1c(C)nn(-c2ccccc2)c1N1CCC(C(=O)NCc2cccc(F)c2)CC1	inactive: -10.1%

Structure (SMILES)	activity change, negative = inhibition
CCN(c1cc(C)cc(C)c1)S(=O)(=O)c1nnc(NC(=O)c2ccccc2C)s1	inactive: 3.55%
Cc1ccc(N(CC(=O)N2CCN(c3cccc(C)c3C)CC2)S(=O)(=O)c2c(C)nn(C)c2C)cc1	inactive: -9.72%
Cn1nc(C(=O)NCc2ccccc2Cl)c2c1-c1ccccc1SC2	inactive: 0.328%
CCN(CC)c1nn2c(=O)c(C(=O)NCc3ccccc3Br)cnc2s1	inactive: -7.22%
O=C(NCCc1ccc(Cl)cc1)c1cc2c(s1)-c1ccccc1OC2	inactive: -0.98%
COc1cc(OC)c2c(C)c(CC(=O)NCc3ccccc3OC)c(=O)oc2c1	inactive: 1.88%
CCOc1ccc(NC(=O)N2CCN(C(=O)c3nsc4ccccc34)CC2)cc1	inactive: -12.1%
Cc1cccc(NC(=O)c2ccc(Cn3nc(N4CCN(c5ccccc5)CC4)ccc3=O)o2)c1C	inactive: -1.46%
O=S(=O)(Nc1cccc(-c2ccc(N3CCOCC3)nn2)c1)c1ccc(F)c(C(F)(F)F)c1	inactive: -6.96%
COc1ccc(CCNC(=O)c2ccc3c(c2)CCN3S(=O)(=O)c2ccc(C)cc2)cc1OC	inactive: -3.8%
COc1ccc(-c2cc(C(F)(F)F)nc(SCC(=O)N(C)Cc3ccccc3)n2)cc1	inactive: -1.41%
Cc1ccc(NC(=O)CSc2nccn2-c2ccccc2)cc1	inactive: -2.69%
O=C(COc1ccccc1Cl)Nc1ccc2nc(SCC(=O)N3CCOCC3)sc2c1	inactive: -0.348%
O=S(=O)(c1ccc2nc(Nc3ccc(Br)cc3F)ccc2c1)N1CCCCC1	inactive: 1.62%
CCSc1nc2sc3c(c2c(=O)n1-c1ccc(C)c(Cl)c1)CCN(C(C)=O)C3	inactive: -18.5%
Cc1cc(=O)n(Cc2ccc(Br)cc2F)c2c1c(C)nn2-c1ccccc1	inactive: 4.92%
Cc1ccc(NC(=O)Cn2c(=O)n(CCCCC(=O)NCCc3ccccc3)c(=O)c3ccccc32)cc1	inactive: -1.03%
Cc1ccccc1Cn1cc(S(=O)(=O)c2ccc(F)cc2)c(=O)c2cc3c(cc21)OCO3	inactive: -2.43%
O=C(CCNS(=O)(=O)c1ccc2c(c1)CCCC(=O)N2)NCc1ccc(Cl)cc1	inactive: -20.2%
Cc1cc(Cl)ccc1OCCSc1nnc(-c2cccs2)o1	inactive: -0.506%
CCc1nccn1S(=O)(=O)c1cc(Br)ccc1Br	inactive: 2.28%
COC(=O)c1ccc2c(c1)N(CC(=O)Nc1ccc(C)cc1Cl)C(=O)c1ccccc1S2	inactive: 0%
COc1ccc(C)cc1NC(=O)CN(C)S(=O)(=O)c1ccc2[nH]c(=O)oc2c1	inactive: -9.06%
COC(=O)c1sccc1S(=O)(=O)N(CC(=O)Nc1cc(F)ccc1F)c1ccc(C)c(C)c1	inactive: -0.18%
